These results are taken from PubChem BioAssay (NCI).

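Following 48 hours of exposure in 96-well plates, responses at five concentrations were used to interpolate endpoints linearly. GI50 = concentration required for 50% inhibition of growth. TGI: concentration producing complete growth inhibition.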

This assay deals with MDA-MB-468 breast. Put plainly: NCI-60 cell line screen, 48 h.

On to `CN[C@H]1C[C@@H]2O[C@@](C)([C@H]1OC)n1c3ccccc3c3c4c(c5c6ccccc6n2c5c31)C(=O)NC4`, for which the GI50 is 1.66 nM and the TGI amounted to 13.5 nM.
